# Measurements reported in the supplement of paper PMC8728848.
# The list shows a part of the results.
# B1: Gal 4 (Mus musculus), P56470 (protein)
# chain: MAYVPAPGYQPTYNPTLPYYQPIPGGLNVGMSVYIQGVASEHMKRFFVNFVVGQDPGSDVAFHFNPRFDGWDKVVFNTLQGGKWGSEERKRSMPFKKGAAFELVFIVLAEHYKVVVNGNPFYEYGHRLPLQMVTHLQVDGDLQLQSINFIGGQPLRPQGPPMMPPYPGPGHCHQQLNSLPTMEGPPTFNPPVPYFGRLQGGLTARRTIIIKGYVPPTGKSFAINFKVGSSGDIALHINPRMGNGTVVRNSLLNGSWGSEEKKITHNPFGPGQFFDLSIRCGLDRFKVYANGQHLFDFAHRLSAFQRVDTLEIQGDVTLSYVQI
# Key:
# Assay in all cases: glycan array binding signal (z-score within array); higher = stronger binding
# Conditions in all cases: glycan notation: IUPAC condensed, linker removed
# [1] = molecular target: Man(a1-3)[Man(a1-6)]Man(a1-6)[Man(a1-3)]Man(b1-4)GlcNAc(b1-4)GlcNAc
# Outline: (§1)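 The Consortium for Functional Glycomics database supplied 3228 glycan arrays, of which those lacking an available protein sequence were dropped. The binding signal, a within-array Z-score, was averaged across arrays of the same protein sequence and across linkers. Negative scores can be read as non-binding.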
# [2] = molecular target: Man(a1-3)[Man(a1-6)]Man(b1-4)GlcNAc(b1-4)GlcNAc
# Outline: as §1
# [3] = molecular target: Man(a1-3)[Man(a1-6)]Man(b1-4)GlcNAc(b1-4)[Fuc(a1-6)]GlcNAc
# Outline: as §1
# Man(a1-6)Man = molecular target: Man(a1-6)Man
# Outline: as §1
# Man(b1-4)GlcNAc = molecular target: Man(b1-4)GlcNAc
# Outline: as §1
# MurNAc(b1-4)GlcNAc = molecular target: MurNAc(b1-4)GlcNAc
# Outline: as §1
# Neu5Ac(a2-3)Gal = molecular target: Neu5Ac(a2-3)Gal
# Outline: as §1
# [4] = molecular target: Neu5Ac(a2-3)Gal(b1-3)GalNAc
# Outline: as §1
# [5] = molecular target: Neu5Ac(a2-3)Gal(b1-3)GalNAc(b1-3)Gal(a1-4)Gal(b1-4)Glc
# Outline: as §1
# [6] = molecular target: Neu5Ac(a2-3)Gal(b1-3)GalNAc(b1-4)[Neu5Ac(a2-3)]Gal(b1-4)Glc
# Outline: as §1
# [7] = molecular target: Neu5Ac(a2-3)Gal(b1-3)GalNAc(b1-4)[Neu5Ac(a2-8)Neu5Ac(a2-3)]Gal(b1-4)Glc
# Outline: as §1
# [8] = molecular target: Neu5Ac(a2-3)Gal(b1-3)GalNAc6S
# Outline: as §1
# [9] = molecular target: Neu5Ac(a2-3)Gal(b1-3)GlcNAc
# Outline: as §1
# [10] = molecular target: Neu5Ac(a2-3)Gal(b1-3)GlcNAc(b1-2)Man
# Outline: as §1
# [11] = molecular target: Neu5Ac(a2-3)Gal(b1-3)GlcNAc(b1-2)Man(a1-3)[GlcNAc(b1-4)][Neu5Ac(a2-3)Gal(b1-3)GlcNAc(b1-2)Man(a1-6)]Man(b1-4)GlcNAc(b1-4)GlcNAc
# Outline: as §1
# [12] = molecular target: Neu5Ac(a2-3)Gal(b1-3)GlcNAc(b1-2)Man(a1-3)[Neu5Ac(a2-3)Gal(b1-3)GlcNAc(b1-2)Man(a1-6)]Man(b1-4)GlcNAc(b1-4)GlcNAc
# Outline: as §1
# [13] = molecular target: Neu5Ac(a2-3)Gal(b1-3)GlcNAc(b1-3)Gal(b1-3)GlcNAc
# Outline: as §1
# [14] = molecular target: Neu5Ac(a2-3)Gal(b1-3)GlcNAc(b1-3)Gal(b1-4)GlcNAc
# Outline: as §1
# [15] = molecular target: Neu5Ac(a2-3)Gal(b1-3)GlcNAc(b1-3)GalNAc
# Outline: as §1
# [16] = molecular target: Neu5Ac(a2-3)Gal(b1-3)GlcNAc(b1-4)Gal(b1-4)Glc
# Outline: as §1
# [17] = molecular target: Neu5Ac(a2-3)Gal(b1-3)GlcNAc(b1-6)GalNAc
# Outline: as §1
# [18] = molecular target: Neu5Ac(a2-3)Gal(b1-3)GlcNAc6S
# Outline: as §1
# [19] = molecular target: Neu5Ac(a2-3)Gal(b1-3)[Fuc(a1-4)]GlcNAc
# Outline: as §1
# [20] = molecular target: Neu5Ac(a2-3)Gal(b1-3)[Fuc(a1-4)]GlcNAc(b1-3)Gal(b1-3)[Fuc(a1-4)]GlcNAc
# Outline: as §1
# [21] = molecular target: Neu5Ac(a2-3)Gal(b1-3)[Fuc(a1-4)]GlcNAc(b1-3)Gal(b1-4)[Fuc(a1-3)]GlcNAc
# Outline: as §1
# [22] = molecular target: Neu5Ac(a2-3)Gal(b1-3)[GlcNAc(b1-6)]GalNAc
# Outline: as §1
# [23] = molecular target: Neu5Ac(a2-3)Gal(b1-3)[Neu5Ac(a2-3)Gal(b1-4)]GlcNAc
# Outline: as §1
# [24] = molecular target: Neu5Ac(a2-3)Gal(b1-3)[Neu5Ac(a2-6)]GalNAc
# Outline: as §1
# [25] = molecular target: Neu5Ac(a2-3)Gal(b1-3)[Neu5Ac(a2-6)]GlcNAc(b1-3)[Fuc(a1-3)[Gal(b1-4)]GlcNAc(b1-6)]Gal(b1-4)Glc
# Outline: as §1
# [26] = molecular target: Neu5Ac(a2-3)Gal(b1-3)]Neu5Ac(a2-3)Gal(b1-4)]GlcNAc
# Outline: as §1
# Neu5Ac(a2-3)Gal(b1-4)Glc = molecular target: Neu5Ac(a2-3)Gal(b1-4)Glc
# Outline: as §1
# [27] = molecular target: Neu5Ac(a2-3)Gal(b1-4)GlcNAc
# Outline: as §1
# [28] = molecular target: Neu5Ac(a2-3)Gal(b1-4)GlcNAc(b1-2)Man
# Outline: as §1
# [29] = molecular target: Neu5Ac(a2-3)Gal(b1-4)GlcNAc(b1-2)Man(a1-3)[GlcNAc(b1-2)Man(b1-4)GlcNAc(b1-2)Man(a1-6)]Man(b1-4)GlcNAc(b1-4)GlcNAc
# Outline: as §1
# [30] = molecular target: Neu5Ac(a2-3)Gal(b1-4)GlcNAc(b1-2)Man(a1-3)[GlcNAc(b1-4)][Neu5Ac(a2-3)Gal(b1-4)GlcNAc(b1-2)Man(a1-6)]Man(b1-4)GlcNAc(b1-4)GlcNAc
# Outline: as §1
# [31] = molecular target: Neu5Ac(a2-3)Gal(b1-4)GlcNAc(b1-2)Man(a1-3)[Neu5Ac(a2-3)Gal(b1-4)GlcNAc(b1-2)Man(a1-6)]Man(b1-4)GlcNAc(b1-4)GlcNAc
# Outline: as §1
# [32] = molecular target: Neu5Ac(a2-3)Gal(b1-4)GlcNAc(b1-2)Man(a1-3)[Neu5Ac(a2-3)Gal(b1-4)GlcNAc(b1-2)Man(a1-6)]Man(b1-4)GlcNAc(b1-4)[Fuc(a1-6)]GlcNAc
# Outline: as §1
# [33] = molecular target: Neu5Ac(a2-3)Gal(b1-4)GlcNAc(b1-2)Man(a1-3)[Neu5Ac(a2-6)Gal(b1-4)GlcNAc(b1-2)Man(a1-6)]Man(b1-4)GlcNAc(b1-4)GlcNAc
# Outline: as §1
binder,measurement,setting,value
B1,glycan array binding signal (z-score),[1],-0.205
same,glycan array binding signal (z-score),[2],-0.242
same,glycan array binding signal (z-score),[3],-0.293
same,glycan array binding signal (z-score),Man(a1-6)Man,-0.218
same,glycan array binding signal (z-score),Man(b1-4)GlcNAc,-0.217
same,glycan array binding signal (z-score),MurNAc(b1-4)GlcNAc,-0.259
same,glycan array binding signal (z-score),Neu5Ac(a2-3)Gal,-0.229
same,glycan array binding signal (z-score),[4],-0.232
same,glycan array binding signal (z-score),[5],-0.208
same,glycan array binding signal (z-score),[6],-0.206
same,glycan array binding signal (z-score),[7],-0.211
same,glycan array binding signal (z-score),[8],-0.21
same,glycan array binding signal (z-score),[9],-0.225
same,glycan array binding signal (z-score),[10],-0.23
same,glycan array binding signal (z-score),[11],-0.249
same,glycan array binding signal (z-score),[12],-0.194
same,glycan array binding signal (z-score),[13],0.107
same,glycan array binding signal (z-score),[14],-0.205
same,glycan array binding signal (z-score),[15],-0.238
same,glycan array binding signal (z-score),[16],-0.335
same,glycan array binding signal (z-score),[17],-0.336
same,glycan array binding signal (z-score),[18],-0.226
same,glycan array binding signal (z-score),[19],-0.23
same,glycan array binding signal (z-score),[20],-0.228
same,glycan array binding signal (z-score),[21],-0.234
same,glycan array binding signal (z-score),[22],-0.323
same,glycan array binding signal (z-score),[23],-0.204
same,glycan array binding signal (z-score),[24],-0.211
same,glycan array binding signal (z-score),[25],-0.25
same,glycan array binding signal (z-score),[26],-0.287
same,glycan array binding signal (z-score),Neu5Ac(a2-3)Gal(b1-4)Glc,-0.227
same,glycan array binding signal (z-score),[27],-0.238
same,glycan array binding signal (z-score),[28],-0.301
same,glycan array binding signal (z-score),[29],-0.192
same,glycan array binding signal (z-score),[30],-0.276
same,glycan array binding signal (z-score),[31],-0.302
same,glycan array binding signal (z-score),[32],-0.301
same,glycan array binding signal (z-score),[33],-0.228
